# According to the supplement of paper PMC11417369:
# ± gives the standard deviation of the averaged measurements. This is one part of the list.
# Test system: PfAP2-LT AP2 domain (GST-tagged)
# Assay: gcPBM binding intensity (ln(normalized median fluorescence intensity)); higher = stronger DNA binding
# Method in brief: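 Alexa488 anti-GST antibody, scanned at 488 nm, detected GST-tagged P. falciparum DNA-binding domains that had been expressed in E. coli and incubated for 1 h on an Agilent 4 × 180k array. The array carried primer-extended double-stranded 36-bp intergenic genomic probes and negative controls. Binding intensity is the highest Masliner-normalised natural-log median intensity across replicate spots of either orientation of each probe.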
row,Sequence,gcPBM binding intensity (ln)
1,TTGTTATAGAAGCATTCACACACACCCATACATACA [CACACA_site8414],9.63 ± 0.43
2,ATATATATATATCATAGTACACATATGTGTCTCGTG [XGTACX_site774],9.55 ± 0.19
3,ATGTCTTTGAAAAAAAGTACTTAAAATTATAAAAAT [XGTACX_site147],8.46 ± 0.52
4,ACTGTCGTTTTAAAGAGTACATAAAATATTAAATTA [XGTACX_site3589],8.37 ± 0.5
5,TTCTTTTAAAGGTATACATGCGCATGGATTTTTCAT [TGCATGCA_site223],8.99 ± 0.29
6,AATTAAAAAATTATCACACATATATATATATATATA [CACACA_site5789],9.53 ± 0.23
7,TCAAAGCACAGATACACACACATATATATATATATA [CACACA_site287],10.18 ± 0.014
8,AAAACTATTAATGCAAAAAATAAAATATAATAATAA [XGTACX_negctrl_site524],8.67 ± 0.38
9,TATATACCACATTGTTGTACGACACATTTACATTTT [XGTACX_site8370],9.32 ± 0.4
10,GGAAACACGATATATACACACATATTTATATTTATA [CACACA_site6250],9.17 ± 0.44
11,ATGTTGTTATAAAGAGTGCAACGTATATGTATCCTT [GTGCAC_site9935],8.88 ± 0.42
12,TCCAAATAAATATATTGTACAGAATTATTGATACCT [XGTACX_site327],8.63 ± 0.45
13,AGAAAAGGAAAATAAACATGCAAAAATAATATTAAA [TGCATGCA_site337],8.88 ± 0.64
14,ATTCTGAATGTTATGCGTACATATTAATCCTATTTA [XGTACX_site1216],8.8 ± 0.45
15,TGTAATAATTATTGCACGCACACAAAAACCTATAGA [CACACA_site2932],9.12 ± 0.39
16,TAAGGTTCATTAAAGTGTACACATAAATACCGTAAC [XGTACX_site8212],8.97 ± 0.42
17,AAGTAAATATAATAAGGTACACATAAATAAATAAAT [XGTACX_site1740],9.04 ± 0.56
18,TATAAATATGTATATACACACTTTTAATATTCATAA [CACACA_site7856],8.66 ± 0.45
19,TTTTCTTACTATTGTAGTACAATATTATATTCTTTT [XGTACX_site1925],8.93 ± 0.61
20,TGCGTATTCTTATTAGGTACACATATTCGTGATAAT [XGTACX_site5681],8.82 ± 0.41
21,TAATATTTTTATTATTAGAATTGTATATGTTTAATA [CACACA_negctrl_site1833],8.2 ± 0.54
22,ATAAAAGGAATATTTGCATGTGGTAGTACATAACAT [TGCATGCA_site978],8.85 ± 0.37
23,CATATATCATAAATATGTACGAAATAAAAGAATCAT [XGTACX_site942],8.97 ± 0.4

row,Sequence,gcPBM binding intensity (ln)
1,TTTTCTAAAATATTCATAATAAATCAAAAAAAAAAA [GTGCAC_negctrl_site320],8.04 ± 0.49
2,TACAAATATAGACACACACACATATATATATATATA [CACACA_site585],9.975 ± 0.064
3,TAATTTGAAAAATTGTGTACTCATAAAATAAATAAA [XGTACX_site2138],8.31 ± 0.42
4,ATAAAAAAATAAAACACACACATATAGATTATAGAT [CACACA_site7343],9.46 ± 0.35
5,ATAGATGATATACGTAAACACACAAATAAAAAAAAT [CACACA_site9095],9.22 ± 0.56
6,TTTATTTTTCATAATTGTACAAAAATAAATGGAAAC [XGTACX_site5144],8.43 ± 0.42
7,TACATACAGATATATACACACATATAAAATATAGAT [CACACA_site6319],9.34 ± 0.4
8,ATTATATATAAATATACACACATATATAAAATACAT [CACACA_site5298],9.03 ± 0.36
9,AAGAGAAAAATATGGTTGCACTAAAAATATATATTT,8.59 ± 0.5
10,AAATTAAAAAGAGCTTGTACAGATGTATACATAATA [XGTACX_site3882],8.94 ± 0.47
11,TTTATAATTCTTACAACACACAATGTACATTTATAT [CACACA_site1261],9 ± 0.45
12,AATTTATATGTTTTGTGTACACAATTTATTAAATTA [XGTACX_site6448],8.96 ± 0.41
13,TATATGAAGCTATAGACACACATATAAAAATAGAAT [CACACA_site1313],9.09 ± 0.47
14,TACATATATATATGTATATATATATATATATAAATA [XGTACX_negctrl_site351],9.12 ± 0.38
15,ATGAATAAATGAACATGTACATATATATATATATTA [XGTACX_site5005],9.16 ± 0.41
16,ACATAACTGATATATACACACAATACAAATATAGAT [CACACA_site7328],9.35 ± 0.42
17,AAATGTGCATTATGTTGTACAGTCGAAATTTTTTTT [XGTACX_site3812],8.68 ± 0.41
18,TTTTCTAAATATTATAGTACTCTTAATAATATTAAC [XGTACX_site4222],8.36 ± 0.47
19,TAAAAAATTAATAAAGTGCATAAATATTACAATATT,8.64 ± 0.47
20,TTAACAAAATATAGCACACATAAATATATATTTATG [CACACA_site351],8.79 ± 0.49
21,ATTCATATATTTATTGCATGCAAAGTAAAATAAATA [TGCATGCA_site307],8.85 ± 0.35
22,AATATTAAAATATAAACACACAAAATTCAATTATAT [CACACA_site5971],8.85 ± 0.46
23,GACATATTAGAAGGGTGTACATACTTTTAATCATTT [XGTACX_site1698],8.78 ± 0.47

row,Sequence,gcPBM binding intensity (ln)
1,AATTAAAAAGAAAAAAGTACATATTTTTTTAAAAAA [XGTACX_site7384],8.3 ± 0.55
2,ATATATATATATATGTGTACTAATAAGGTTAAATAA [XGTACX_site1535],9.12 ± 0.29
3,AAATATATATTTCTTAGTACATATGTATTTTTTTTT [XGTACX_site938],8.8 ± 0.52
4,AATAAAAAAGAATATACACACATAAATATAAAATAT [CACACA_site683],9.25 ± 0.38
5,ACAAAATGTAGATATTGTACATATTGTAGATATTGT [XGTACX_site7619],9.03 ± 0.42
6,TTTGACAAATTATTGTGTACACAATATTATTATATA [XGTACX_site8320],8.83 ± 0.42
7,ATGAAGAAGTGTAAATGTACATTTTATGTAGAACAA [XGTACX_site6925],8.92 ± 0.4
8,ATTTAAGATTTAATCACACACATATAGATTATAGAC [CACACA_site7383],8.96 ± 0.32
9,TTTACAGAAAGTTACATACACACTAATATTTACACC [CACACA_site1009],8.86 ± 0.4
10,TATAAGAGGATATATACACACAAAAATATGTACAGT [CACACA_site6885],9.33 ± 0.4
11,TTTATATGTATTAAGTGTACACATATAATGTGTTTG [XGTACX_site6629],8.92 ± 0.49
12,TTATTTTTTTTTTATTGTACTAGGAAAATTTCGATA [XGTACX_site702],8.31 ± 0.45
13,TAATATTAATCCTAGTGTACATTAATTTATATGTAT [XGTACX_site3583],8.73 ± 0.45
14,ATTATATATATATAAACACACAAATATTTTTATATA [CACACA_site5005],8.71 ± 0.42
15,ACCTATATAAGTTATACACACAAATATAGATATATA [CACACA_site7356],9.05 ± 0.42
16,TACAGACAGAAATGCACACACATATTTATATTTATA [CACACA_site7139],9.35 ± 0.3
17,CTTCCTTAGGAATGTACACACATATATAATATGTTG [CACACA_site461],8.93 ± 0.38
18,TCTTTGTTTTTTTTTTTTAAACAAAATCATCAAAGG [XGTACX_negctrl_site192],8.22 ± 0.38
19,AAGATACACCTTTTTAGTACTTACATTTTTTTTATT [XGTACX_site1373],8.93 ± 0.47
20,GCGTATACTTGTAACGGTACACAGGAAATTATAGAA [XGTACX_site507],9.05 ± 0.64
21,AATAAATATATATACACACCCATATATATATATATA [CACACA_site2595],9.73 ± 0.014
22,TACACTTTTTTTTGTACACACTAAAAAGATTAACAA [CACACA_site6037],8.51 ± 0.4
23,TAATGTTGTTTCTGAGGTACACAATTTTTTTTATTT [XGTACX_site8035],8.74 ± 0.45

row,Sequence,gcPBM binding intensity (ln)
1,TTAATGAAATATTATACACACAAAAAAATAATTTTA [CACACA_site4231],8.66 ± 0.36
2,TATATATATGGACACACACACACCAAAGCGTAGCGC [CACACA_site4209],9.66 ± 0.25
3,AAAAAATATTTATGTTCACACATTTTATATATGATA [CACACA_site4821],8.59 ± 0.42
4,TTTTTTTTTTGATGAGCACACATGTTTTTTCTTAGA [CACACA_site3171],8.75 ± 0.49
5,AAATATTTTTAAAGAAGTACTTTTTAAAAATAATCT [XGTACX_site4897],8.31 ± 0.2
6,CCAACATAGAGGGGCACACACATATATACCTAAAAA [CACACA_site5088],9.29 ± 0.58
7,AGATTATAAAATTCTACACACATATATACCTATATA [CACACA_site5848],9.04 ± 0.42
8,AAAATAATTGTTTACACACCCATTTGTAATTTTACC [CACACA_site3614],9.05 ± 0.42
9,CTGTGTTTTGGTTGTACACACGCTACATTCTATATT [CACACA_site2698],9.42 ± 0.34
10,ACCATACAGAATAATGCATGTTCCTTTTTATGAATA [TGCATGCA_site995],8.69 ± 0.36
11,AAAAAAATAAAGGATATACACACTAATTATATATAT [CACACA_site2812],8.88 ± 0.42
12,TATACTTGTAAATGCACACATAAGATGCGACTAATG [CACACA_site2118],9.03 ± 0.31
13,TCTATATCAACCAGTTGTACTGAATTTACTATATTT [XGTACX_site4205],8.69 ± 0.58
14,TATAAAAGTAGACACACACACATATAAATATAAATA [CACACA_site6567],9.66 ± 0.27
15,GTAGACTGAAACCACACACACATATATAAATATATT [CACACA_site6433],9.68 ± 0.38
16,AAAAAAAAAAATGGTTGTACTTTTTTTATTTGGTGC [XGTACX_site4498],8.6 ± 0.43
17,ATATTATATTGGATGTTGCACTTAACAAAAGGATAT [GTGCAC_site9478],8.67 ± 0.48
18,ATAGACTTTTGTTTTGTTTTATTTTATTGTATTGTA [CACACA_negctrl_site618],8.88 ± 0.45
19,ATTTACATTATATTGAATATGCCATATTATATTATT [CACACA_negctrl_site811],8.82 ± 0.47
20,TCTAACATATTTTTAATACACACTTAAAAAAGTACT [CACACA_site1366],8.59 ± 0.4
